# Data from PubChem BioAssay AID588591 (National Center for Advancing Translational Sciences (NCATS), 2011).
# The campaign covered roughly 390,000 compounds. About 4,700 (1.2%) were called active. Inconclusive means that the source gave no clear call. Such entries were picked first, then a sample of the others. Calls come from the whole dose curve; as a rule, active = well fitted inhibition curve with a large enough effect; inconclusive = small, poorly fitted or top-dose-only effect, or another doubt; inactive = no such curve, though single readings can be large or run the other way. Potencies of inconclusive entries are doubtful fits and often do not repeat.
# Biological target: DNA polymerase eta (Homo sapiens) (UniProt Q9Y253)
# Experiment: qHTS for Inhibitors of Polymerase Eta
# Details: recombinant Pol eta, fluorescent DNA replication assay; series mostly up to 114 µM; activity change, negative = inhibition: at the top concentration
# Procedure, shortened: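 Fluorescent replication assay: 50 nM final substrate added after a 15 min room-temperature compound preincubation with 10 nM enzyme. Signal taken at 0 min and again at 10 min.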
# % is set by controls: 0 for no effect and ±100 for the full control effect; potency is the fitted concentration of half-maximal effect; tags give direction and shape of the fitted curve.
# Chain of UniProt Q9Y253 (Q9Y253 whole entry, looked up): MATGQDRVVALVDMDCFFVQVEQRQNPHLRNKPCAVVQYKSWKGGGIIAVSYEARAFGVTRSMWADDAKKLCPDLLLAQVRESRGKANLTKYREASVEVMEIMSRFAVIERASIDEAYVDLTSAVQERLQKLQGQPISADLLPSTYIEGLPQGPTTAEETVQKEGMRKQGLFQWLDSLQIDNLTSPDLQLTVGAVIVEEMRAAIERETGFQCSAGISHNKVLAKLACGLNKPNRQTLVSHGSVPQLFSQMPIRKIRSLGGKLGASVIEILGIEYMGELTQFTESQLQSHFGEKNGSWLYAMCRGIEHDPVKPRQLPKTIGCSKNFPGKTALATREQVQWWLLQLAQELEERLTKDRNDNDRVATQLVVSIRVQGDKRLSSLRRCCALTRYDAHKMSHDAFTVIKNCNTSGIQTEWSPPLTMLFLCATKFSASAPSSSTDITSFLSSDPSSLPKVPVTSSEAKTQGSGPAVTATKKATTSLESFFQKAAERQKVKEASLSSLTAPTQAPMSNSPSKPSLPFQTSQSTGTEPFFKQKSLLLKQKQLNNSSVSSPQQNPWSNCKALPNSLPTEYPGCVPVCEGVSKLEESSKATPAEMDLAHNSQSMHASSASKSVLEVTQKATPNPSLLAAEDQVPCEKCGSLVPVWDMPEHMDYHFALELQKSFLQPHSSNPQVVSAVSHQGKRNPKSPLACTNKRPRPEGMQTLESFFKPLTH
SMILES,Potency,"activity change, negative = inhibition"
COCCCNc1c2c3c(cccc3[nH]c1=O)C(=O)c1ccccc1-2,"inconclusive: 39.8 µM [inhibitor, partial curve]",
Cc1noc(C)c1COC(=O)CCCc1c[nH]c2ccccc12,"inconclusive: 12.6 µM [inhibitor, full curve, poor fit]",
CC(C)C(NC(=O)/C(=C/c1ccco1)NC(=O)c1ccc(Br)o1)C(=O)O (stereo not given),active: 20 µM,
O=C1Nc2ccc3c(c2C1=Cc1cc2c(cc1Br)OCO2)OCO3,"inconclusive: 8.91 µM [inhibitor, full curve, poor fit]",
Cc1ncc(CO)c2c1Oc1nc(-c3ccccc3F)nc(SCC(=O)N(C)c3ccccc3)c1C2,active: 79.4 µM,
F[B-](F)(F)c1cc2cc(Br)ccc2s1,,inactive: -4.12%
COc1cccc(C(=O)Nc2ccc(S(=O)(=O)NCc3ccco3)cc2)c1,"inconclusive: 22.4 µM [inhibitor, partial curve, poor fit]",
COC(=O)c1c(-c2ccccc2)csc1NC(=O)c1c(-c2ccccc2)noc1C,"inconclusive: 89.1 µM [inhibitor, partial curve, poor fit]",
COc1ccc(-c2ccc3c(N)c(C(=O)c4ccc(OC)c(OC)c4)sc3n2)cc1,"inconclusive: 3.98 µM [inhibitor, full curve]",
Nn1c(SCc2ccc(Br)cc2)nnc1-c1ccncc1,"inconclusive: 100 µM [inhibitor, partial curve, poor fit]",
COc1c(O)cc2oc(-c3ccc(O)c(O)c3)cc(=O)c2c1O,active: 3.55 µM,
COc1cccc(-c2csc(NC(=O)Oc3ccccc3)n2)c1,"inconclusive: 89.1 µM [inhibitor, single point]",
COc1ccc2c(c1)c(=O)oc1c(C)c(OC(C)C(=O)N[C@@H](Cc3c[nH]c4ccc(O)cc34)C(=O)O)ccc12 (stereo not given in full),active: 20 µM,
Cc1ccc(S(=O)(=O)Oc2cccc(/C=N/Nc3ccc(C(=O)O)cc3)c2)cc1,active: 79.4 µM,
Cc1nn(-c2c(Cl)cc(Cl)cc2Cl)c(=O)c2ccccc12,"inconclusive: 89.1 µM [inhibitor, partial curve, poor fit]",
O=C(CSc1nc2c(sc3ccccc32)c(=O)n1Cc1ccccc1)NCC1CCCO1 (stereo not given),"inconclusive: 1.41 µM [inhibitor, partial curve, poor fit]",
Cc1ccc2c(c1)c1nnc(SCC(=O)Nc3ccccc3C(F)(F)F)nc1n2CC(=O)O,,inactive: -7.82%
NC(=O)c1ccccc1N/C=C/C(=O)c1ccco1,"inconclusive: 14.1 µM [inhibitor, full curve, poor fit]",
O=C(NNC(=O)c1ccc(NC(=O)c2ccccc2)cc1)c1ccccc1,,inactive: -8.83%
CCc1cccc(NC(=O)CCc2nc3sc4c(c3c(=O)[nH]2)CCCC4)c1,active: 31.6 µM,
Cc1ccc2[nH]c(O)c(N=Nc3ccccc3[N+](=O)[O-])c2c1,"inconclusive: 2.82 µM [inhibitor, full curve, poor fit]",
Nc1c(C(=O)NCc2ccco2)sc2nc3c(cc12)C(=O)CCC3,active: 31.6 µM,
O=C1CCCC2(O)C1C(c1cccc(Br)c1)NC(=O)N2Cc1ccccc1 (stereo not given),,inactive: -9.73%
CN(CC(=O)NCc1cccs1)S(=O)(=O)c1cccc2cccnc12,"inconclusive: 39.8 µM [inhibitor, single point]",

SMILES,Potency,"activity change, negative = inhibition"
CNC[C@H]1Oc2cc(Br)ccc2S(=O)(=O)N([C@@H](C)CO)C[C@@H]1C,,inactive: -8.69%
COC(=O)NC(Nc1sc2c(c1C(N)=O)CCCC2)(C(=O)OC)C(F)(F)F (stereo not given),"inconclusive: 39.8 µM [inhibitor, partial curve, poor fit]",
O=C(NC(=S)Nc1nc(-c2ccc([N+](=O)[O-])cc2)cs1)c1ccco1,"inconclusive: 15.8 µM [inhibitor, partial curve]",
S=C(NCc1ccc(Cl)cc1)NC12CC3CC(CC(C3)C1)C2,"inconclusive: 1.12 µM [inhibitor, full curve, poor fit]",
CCc1c(C2(O)CCCCC2)[nH]c2ccc(C(F)(F)F)cc12,"inconclusive: 79.4 µM [inhibitor, partial curve, poor fit]",
O=C(O)Cc1sc(N/N=C\c2ccccc2)nc1-c1ccccc1,active: 39.8 µM,
Cc1noc(Cn2c(=O)c3cc4c(cc3n(CC(=O)Nc3ccccc3F)c2=O)OCO4)n1,,inactive: -4.9%
C[C@H](NC(=O)c1nc[nH]c1C(=O)N[C@@H](Cc1ccccc1)C(=O)OC(C)(C)C)C(=O)OC(C)(C)C,"inconclusive: 50.1 µM [inhibitor, partial curve, poor fit]",
Cc1[nH]nc2c1C(c1ccsc1)C(C#N)=C(N)O2 (stereo not given),,inactive: -0.857%
O=C(CSCc1cnn(-c2ccccc2)c1-n1cccc1)NCc1ccc(F)cc1,,inactive: -10.3%
CC(=O)NC(CC(=O)NC(C)c1ccc(Cl)cc1Cl)c1ccccc1 (stereo not given),"inconclusive: 89.1 µM [inhibitor, partial curve, poor fit]",
COc1cc(OC)cc(-c2nnc(SCC(=O)Nc3ccc(C(=O)O)cc3)s2)c1,"inconclusive: 25.1 µM [inhibitor, partial curve, poor fit]",
COc1ccc2[nH]c3nc(SCC(=O)Nc4ccc5c(c4)OCO5)nnc3c2c1,"inconclusive: 31.6 µM [inhibitor, single point]",
COc1cccc(C(=O)OCC(=O)Nc2sc3c(c2C(N)=O)CCC3)c1O,active: 22.4 µM,
COc1cccc(NC(=O)Nc2ccc3nc(N4CCN(C)CC4)cc(C)c3c2)c1,"inconclusive: 89.1 µM [inhibitor, partial curve, poor fit]",
CCS(=O)(=O)C1=NSC2=NC(=O)/C(=C\c3ccc(OC(=O)c4ccco4)cc3)C(=N)N21,active: 79.4 µM,
CCc1nc2ccc(C(=O)N3CCN(c4cccc(C(F)(F)F)c4)CC3)cc2nc1CC,"inconclusive: 28.2 µM [inhibitor, partial curve, poor fit]",
Cc1cc(N2CCCCC2)nc2ccc(NC(=O)/C=C/c3ccc(OCCC(C)C)cc3)cc12,,inactive: -18.2%
CCC(=O)c1ccc(OCC(=O)Nc2nn3cnnc3s2)cc1,"inconclusive: 25.1 µM [inhibitor, single point]",
CCc1cc(C(=O)c2ccc(C)cc2)c(NC(=O)CCl)s1,,inactive: -19.7%
CCCCN(CC)C(=O)C1CCCN(c2ncnc3c2nc2n3CCCCC2)C1 (stereo not given),,inactive: 0.0135%
Cc1ccccc1NC(=O)CSc1ccsc1[N+](=O)[O-],active: 2.82 µM,
COc1ccc(-c2cc3ccc(O)cc3oc2=O)cc1OC,,inactive: -27.7%
C=CCC[C@H](Cc1ccc(F)cc1)C(=O)OC[C@@H](NC(=O)[C@@H](CC=C)CC(=O)N(CCO)Cc1ccccc1)C(C)(C)C,"inconclusive: 79.4 µM [inhibitor, partial curve, poor fit]",

SMILES,Potency,"activity change, negative = inhibition"
O=C(CN1C(=O)/C(=C/c2ccccc2F)SC1=S)NC1C=CS(=O)(=O)C1 (stereo not given),"inconclusive: 50.1 µM [inhibitor, partial curve]",
O=C(CCC1N=C2c3ccccc3N=C(SCC(=O)Nc3ccccc3F)N2C1=O)NCc1ccco1 (stereo not given),,inactive: -19.2%
O=C(O)c1cc(-c2cc3ccccc3o2)nn1-c1ccccc1,"inconclusive: 79.4 µM [inhibitor, partial curve, poor fit]",
Nc1ccc(N)c(C(=O)O)c1,active: 1.26 µM,
CCOC(=O)c1sc2nc(CC(=O)OC)nc(NCc3ccco3)c2c1C,"inconclusive: 25.1 µM [inhibitor, single point]",
Brc1ccc(C2=Nn3c(nnc3-c3cccnc3)SC2)s1,"inconclusive: 15.8 µM [inhibitor, partial curve, poor fit]",
O=C(COc1ccccc1/C=C1\SC(=O)NC1=O)Nc1ccc(F)cc1,active: 70.8 µM,
CCOC(=O)c1sc(NC(=O)COC(=O)Cn2cnc3ccccc32)c(C(=O)OCC)c1C,"inconclusive: 35.5 µM [inhibitor, partial curve]",
Cc1oc(-c2ccccc2)nc1Cn1c(SCc2cccc(C(F)(F)F)c2)nc2cccnc21,,inactive: -16.5%
COc1ccc(Cn2nnnc2C(c2ccccc2Cl)N2CCN(C3CCCC3)CC2)cc1 (stereo not given),"inconclusive: 3.98 µM [inhibitor, full curve, poor fit]",
COc1cccc2c1Oc1ncccc1N(C(=O)CCC(=O)NCc1cccc(C)c1)C2,,inactive: -7.05%
O=C(c1ccco1)N(Cc1ccc([N+](=O)[O-])cc1)c1ccc(Br)cc1,"inconclusive: 11.2 µM [inhibitor, full curve, poor fit]",
CCOC(=O)c1cnc2c(cnn2CC)c1NN=C(C)C,,inactive: -2.02% [at 57.1 µM]
c1nc(SSc2ncnc3nc[nH]c23)c2[nH]cnc2n1,,inactive: -11%
COc1ccc([N+](=O)[O-])cc1NC(=O)C(C)OC(=O)/C=C/c1ccco1 (stereo not given),"inconclusive: 28.2 µM [inhibitor, single point]",
CC1CCCCC1NC(=O)CSc1nnc(C(F)(F)F)n1C (stereo not given),,inactive: -0.319%
O=C(OCc1ccc(F)cc1)c1cccnc1Cl,,inactive: -21.4%
CCOc1ccccc1-c1noc(CSc2nnc(-c3ccccc3)n2-c2cccc(C)c2)n1,,inactive: -29.9%
CCCCCn1c(NC(=O)c2ccco2)c(S(=O)(=O)c2ccc(C)cc2)c2nc3ccccc3nc21,"inconclusive: 100 µM [inhibitor, partial curve, poor fit]",
CC1(C)Cc2[nH]c(=S)c(C#N)cc2CO1,,inactive: 6.03%
O=C(N/C=C/c1ccco1)NCc1ccccc1,active: 17.8 µM,
CC(=O)Nc1nonc1-c1nc2ccccc2n1N(C(C)=O)C(C)=O,"inconclusive: 14.1 µM [inhibitor, full curve, poor fit]",
